In a collection of fitness landscapes (doi:10.1016/j.celrep.2020.107928):
Over roughly 81,000 sequences, “one-hybrid fitness for binding NBS DNA” has its median near -0.1; the highest 2% begin near 0.36. Some of the results follow.

B1: Caulobacter ParB omega fusion; a variant is named by its letters at X, in order, B8GW30 (parent)
chain: MESVVVGEPGMSEGRRGLGRGLSALLGEVDAAPAQAPGEQLGGSREAPIEILQRNPDQPRRTFREEDLEDLSNSIREKGVLQPILVRPSPDTAGEYQIVAGERAWRAAQRAGLKTVPIMVRELDDLAVLEIGIIENVQRADLNVLEEALSYKVLMEKFERTQENIAQTIGKSXSHVANXMRLLXLPDEVQSYLVSGELTAXHARAIAAAADPVALAKQIIEGGLSVRETEALARKAPNLSAGKSKGGRPPRVKDTDTQALESDLSSVLGLDVSIDHRGSTGTLTITYATLEQLDDLCNRLTRGI

Variants of: B1
Test: one-hybrid fitness for binding NBS DNA (the Noc-binding site; scaled: cognate 1, non-cognate 0); higher = stronger binding
Settings: with NBS DNA site
How it was run: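 Values were rescaled so that cognate is 1 and non-cognate is 0. Each is a fitness, the log change in a variant's read ratio to wild type from Illumina reads of plasmids before and after selection, with three replicate libraries pooled and variants under 10 reads dropped. Selection of the Caulobacter ParB libraries, four specificity codons randomised, used E. coli USO with a HIS3 reporter, site 19 bp from the promoter, on M9-minus-histidine with 0.1 mM IPTG and 5 mM 3-AT for 48 hours at 37°C.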

Variant | one-hybrid fitness for binding NBS DNA
PQSY | ≤ 0.2
CSPI | ≤ 0.2
PASD | ≤ 0.2
WNAG | ≤ 0.2
CQKT | ≤ 0.2
TCYD | ≤ 0.2
NDDC | ≤ 0.2
CHKL | ≤ 0.2
PVTQ | ≤ 0.2
DWPT | ≤ 0.2
KLHT | ≤ 0.2
GRGC | ≤ 0.2
WMRT | ≤ 0.2
YWAS | ≤ 0.2
AIFG | ≤ 0.2
ETTV | ≤ 0.2
LYWL | ≤ 0.2
NNYY | ≤ 0.2
HSVR | ≤ 0.2
TSQY | ≤ 0.2
MENG | ≤ 0.2
DIER | ≤ 0.2
NLQY | ≤ 0.2
DAAD | ≤ 0.2
PGGS | ≤ 0.2
RLQL | ≤ 0.2

Variant | one-hybrid fitness for binding NBS DNA
QKVH | ≤ 0.2
WYDC | ≤ 0.2
TERI | ≤ 0.2
QWTL | ≤ 0.2
WSTG | ≤ 0.2
HHWR | ≤ 0.2
HMHC | ≤ 0.2
AYMV | ≤ 0.2
KNKC | ≤ 0.2
EDQL | ≤ 0.2
ENAF | ≤ 0.2
CGKG | ≤ 0.2
DWPR | ≤ 0.2
NAVE | ≤ 0.2
HAYS | ≤ 0.2
RTWL | ≤ 0.2
RRRC | 0.39
RNIG | ≤ 0.2
TTPA | ≤ 0.2
LGRF | ≤ 0.2
QSKI | 0.314
QVYW | ≤ 0.2
NQKR | ≤ 0.2
AAAV | ≤ 0.2
PCYR | ≤ 0.2
EMYR | ≤ 0.2

Variant | one-hybrid fitness for binding NBS DNA
FPWS | ≤ 0.2
ALVV | ≤ 0.2
RERQ | ≤ 0.2
SNLW | ≤ 0.2
APQT | ≤ 0.2
QVDS | ≤ 0.2
QGAT | ≤ 0.2
YRPT | ≤ 0.2
EDQC | ≤ 0.2
PWRP | ≤ 0.2
MCFS | ≤ 0.2
LFHT | ≤ 0.2
DELH | ≤ 0.2
DPSL | ≤ 0.2
NLFK | ≤ 0.2
TPKR | 0.351
EIES | ≤ 0.2
MPES | ≤ 0.2
VHKT | ≤ 0.2
TCRW | ≤ 0.2
WFIS | ≤ 0.2
HLDN | ≤ 0.2
NHSN | ≤ 0.2
EHMR | ≤ 0.2
CPSG | ≤ 0.2
GPNW | ≤ 0.2

Variant | one-hybrid fitness for binding NBS DNA
SQNE | ≤ 0.2
ALLW | ≤ 0.2
FCIC | ≤ 0.2
KFPT | ≤ 0.2
QIIA | ≤ 0.2
KRGY | ≤ 0.2
NKKC | ≤ 0.2
ASIN | ≤ 0.2
AIDS | ≤ 0.2
WFHG | ≤ 0.2
AVFN | ≤ 0.2
TIPC | ≤ 0.2
QQNW | ≤ 0.2
GPNH | ≤ 0.2
VVHL | ≤ 0.2
VAGL | ≤ 0.2
PPVT | ≤ 0.2
RCFH | ≤ 0.2
ENTK | ≤ 0.2
QPSV | ≤ 0.2
MLMY | ≤ 0.2
NYKT | ≤ 0.2
GQHI | ≤ 0.2
RPDT | ≤ 0.2
PHQI | ≤ 0.2
LASL | ≤ 0.2

Variant | one-hybrid fitness for binding NBS DNA
RMQY | ≤ 0.2
DPCS | ≤ 0.2
KWMS | ≤ 0.2
AYMK | ≤ 0.2
RSFH | ≤ 0.2
MEIG | ≤ 0.2
EIYF | ≤ 0.2
DLCT | ≤ 0.2
TSEW | ≤ 0.2
WGET | ≤ 0.2
QNFL | ≤ 0.2
MSNC | ≤ 0.2
PMTV | ≤ 0.2
RAAP | ≤ 0.2
QTIP | ≤ 0.2
SRNM | ≤ 0.2
GYHT | ≤ 0.2
NITI | ≤ 0.2
VNGS | ≤ 0.2
RNAE | ≤ 0.2
ARDE | ≤ 0.2
SRRT | 0.255
ENND | ≤ 0.2
DNQM | ≤ 0.2
PGRA | ≤ 0.2
RNIH | ≤ 0.2

Variant | one-hybrid fitness for binding NBS DNA
VPHG | ≤ 0.2
GNYY | ≤ 0.2
WNSI | ≤ 0.2
LQIR | ≤ 0.2
MWYS | ≤ 0.2
AETN | ≤ 0.2
GTKC | ≤ 0.2
VSPY | ≤ 0.2
AHSW | ≤ 0.2
GLWL | ≤ 0.2
VTNE | ≤ 0.2
TLHQ | ≤ 0.2
CTFS | ≤ 0.2
RTDN | ≤ 0.2
PNFF | ≤ 0.2
RLPV | ≤ 0.2
SKTG | ≤ 0.2
NWHR | ≤ 0.2
GAKE | ≤ 0.2
AMEY | ≤ 0.2
YCLG | ≤ 0.2
TRHI | ≤ 0.2
QNAG | ≤ 0.2
